Reference: the RNAGym collection of RNA variant scans (doi:10.1093/nar/gkz1192)
The source gives no read counts; variants with many changes may rest on few reads.

B1: CPEB3 Ribozyme (parent)
chain: UAACAGGGGGCCACAGCAGAAGCGUUCACGUCGCAGCCCCUGUCAGAUUCUGGUGAAUCUGCGAAUUCUGCUGUAUAUCUC

Variants of: B1
Assay: self-cleavage, relative activity (ratio to wild type); higher = more cleavage; in vitro, sequencing
Procedure, shortened: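 Barcoded CPEB3 ribozyme mutants, produced by rounds of error-prone PCR, self-cleaved while being transcribed with T7 RNA polymerase for 5 hours at 37°C and during a subsequent 15 min DNase I step before EDTA was added. Sequencing of template-switched cDNA on Illumina gave cleaved and total reads, and DNA sequencing assigned barcodes to variants. Each variant's relative activity is its cleaved/total read fraction divided by the unmutated ribozyme's fraction, averaged across three batches. A variant needed a minimum of 5 reads.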

Row | Variant | self-cleavage
1 | A5G U26C A28G U43A A57U U58C | 0.35
2 | A5G U26G A77G | 0.29
3 | A5G U54C U60A U66C | 0.27
4 | A5G G6C A15U U25C G61A U74C | 0.45
5 | A5G G6A A21G U26A U67C | 0.06
6 | A5G U31C U43C | 0.26
7 | A5G C40A U60A A64G U72G | 0.19
8 | A5G U67C U72G | 0.09
9 | A5G U67A G73A U80C | 0.66
10 | A5G U51C G73U U74C | 1.16
11 | A5G U31C G33U C39U A57G | 0.65
12 | A5G G10A C14U U25A A65G U80C | 0.47
13 | A5G U43C A45G U69A | 0.11
14 | A5G G9A A18G | 0.12
15 | A5G U43G U80C | 0.7
16 | A5G U49A U51C U58C | 0.14
17 | A5G G6A U48C U49G A65G U78C U80A | 0.15
18 | A5G U26C A45U A65G | 0.11
19 | A5G U54C U78C | 0.6
20 | A5G U43C A64G U72C | 0.25
21 | A5G G7U A56G U67A U72A | 0.07
22 | A5G G10C U41C A56G | 0.27
23 | A5G G42C U43C C62U A64U U69C | 0.12
24 | A5G U26C C37U U43C U60C | 0.07

Row | Variant | self-cleavage
25 | A5G U31C U41A | 0.49
26 | A5G U31C U41C | 0.66
27 | A5G U54A U66C A75G U80C | 0.18
28 | A5G U48C U69A | 0.2
29 | A5G U26C A28U U51A G55A | 0.21
30 | A5G G8A A28G | 0.2
31 | A5G U66C U72G | 0.14
32 | A5G G19U U41A A64U G70C | 0.16
33 | A5G U25C A35U U51C U67C U80A | 0.21
34 | A5G G7U A57G A64C U69G U74G | 0.13
35 | A5G G10A C23A C39A G52C U69A | 0.06
36 | A5G G6A G9A G10C A35G U54A | 0.08
37 | A5G U49A U58C A77G | 0.16
38 | A5G U41G A45G | 0.07
39 | A5G U31C U54A U67C U69A | 0.13
40 | A5G U49C U60C | 0
41 | A5G U25C U26G A35U C40U U49A | 0.04
42 | A5G G7A U25A U54C U80C | 0.06
43 | A5G G16C A47U | 0.2
44 | A5G G10A U49A | 0.7
45 | A5G U25A U43G | 0.23
46 | A5G C39A U54C U60A U72A U80C | 0.29
47 | A5G U25G U80C | 0.23
48 | A5G G9A U66C G70U | 0.31

Row | Variant | self-cleavage
49 | A5G U25C U43A | 0
50 | A5G U25C U43C | 0.53
51 | A5G U26C U60A U72A | 0.2
52 | A5G G30U G73A U74A | 0.1
53 | A5G U31C U49C | 0.31
54 | A5G G30A C79A | 0.39
55 | A5G G10A C17G U41C A45U U72C A75G | 0.04
56 | A5G U26G C62U U67C | 0.12
57 | A5G G6A A15U A21G A56G U69C | 0.29
58 | A5G G8U U26C U51C U54A | 0.06
59 | A5G G10A A15U A28U U43A A45G | 0.05
60 | A5G G19A A35U | 0.63
61 | A5G U31C G52U U72C | 0.3
62 | A5G G19C A28U A47G U48A U74G | 0.12
63 | A5G G24U U41C U43C A45C | 0.3
64 | A5G G6C G9U U31C | 0.56
65 | A5G U54C U66C U78A | 0.09
66 | A5G U25C U31G C38U U41A A56G A65G | 0.03
67 | A5G U26C A35U A64G | 0.22
68 | A5G G63A A64C | 0.25
69 | A5G G53U U60C | 0.54
70 | A5G G6A A35G U66C | 0.32
71 | A5G G22A U78A | 0.08
72 | A5G U26C U41G A56U U78C | 0.25

Row | Variant | self-cleavage
73 | A5G G10A C14U A20U A45U A75G | 0.07
74 | A5G G10A G61A U67C U72A | 0.11
75 | A5G G7A A28U A35G U43A G70C | 0.1
76 | A5G G33C A64G U80C | 0.25
77 | A5G U41A A57U U66C C68A | 0.14
78 | A5G U26C C38G U41A U72C | 0.09
79 | A5G U25C A64G A65G | 0.27
80 | A5G G19U U25C U69A | 0.35
81 | A5G U25C U41A U67C | 0.17
82 | A5G C34A U43C A64G | 0.14
83 | A5G U48C A57G U72A | 0.15
84 | A5G U25C A28G U43A U49A | 0.47
85 | A5G G8A C11U U43G | 0.06
86 | A5G U25A A57G G61A A75U | 0.44
87 | A5G C62U U72C A75G | 0.19
88 | A5G G10C A13G C37U U67G U69C U74A | 0.04
89 | A5G G9A U26A G55A A56G A64U U67C | 0.03
90 | A5G U26C U31C C37U U67A | 0.11
91 | A5G U26C A64G | 0.52
92 | A5G G10A A45U A56G U74G | 0.27
93 | A5G U31C U76C U78C | 0.25
94 | A5G G24A A57G | 0.44
95 | A5G U25C U31C U43A A77C | 0.11
96 | A5G U25G G30A A35U U58C U69C | 0.11

Row | Variant | self-cleavage
97 | A5G G9A C38U U72C A77G | 0.66
98 | A5G U25G G42A U49C | 0.04
99 | A5G U31C U74C | 0.81
100 | A5G G8U A56U C68A A75U | 0.07
101 | A5G G10A G19A U43C U54C A56G | 0.3
102 | A5G U31C U51A C62U U69C U72C | 0.09
103 | A5G U31C A45G U49C G55U | 0.35
104 | A5G U31C U54G U72C | 0.26
105 | A5G C37A C44U A64U A75U | 0
106 | A5G U58C C59G | 0.24
107 | A5G U49G U51A | 0.1
108 | A5G G7A A28C A65G U69A U72C | 0.16
109 | A5G G9A U58C U74C | 0.49
110 | A5G U41A A56G A65G U66C | 0.16
111 | A5G G30A C62A U69C | 0.18
112 | A5G G10A U41C | 0.38
113 | A5G U43C U58A | 0.32
114 | A5G U25A A45G U60A | 0.1
115 | A5G U26C C27A U51C | 0.12
116 | A5G U43G U67C U72C | 0.35
117 | A5G G6A A13U | 0.17
118 | A5G U25A U43C U74A | 0.28
119 | A5G U41A U78A | 0.31
120 | A5G U25C U26C U72C | 0.25

Row | Variant | self-cleavage
121 | A5G U31C C39A A47G U48A | 0.37
122 | A5G C39A U54C A64G U76A | 0.09
123 | A5G U43A U54A U67C | 0.15
124 | A5G G7U A13U G46C A56U A64U A65G | 0.07
125 | A5G G7U U72C | 0.5
126 | A5G C40A A45U A64G C68G U80A | 0.35
127 | A5G U43C U58C A64G | 0.21
128 | A5G U26C G42A | 0.44
129 | A5G U54G U78A | 0.17
130 | A5G U31A A35G U43C A56U | 0.23
131 | A5G U51G C62U | 0.1
132 | A5G U60A U69A | 0.29
133 | A5G U31C A45G U72C | 0.39
134 | A5G G9U G63A | 0.3
135 | A5G U25C A45G U49A | 0.21
136 | A5G G30C A45G U51A U74A | 0.07
137 | A5G U31C U49C U72A C81U | 0.26
138 | A5G G9A U74C U80C | 0.57
139 | A5G U43C U51A A64U | 0.19
140 | A5G G46A G55A U58A U74C | 0.3
141 | A5G G36A U58G | 0.19
142 | A5G U43C U54C U66C | 0.12
143 | A5G U54A U60C | 0.32
144 | A5G U26A C50U | 0.58

Row | Variant | self-cleavage
145 | A5G U26C A28U A45U C59U A64U | 0.09
146 | A5G G9U U25C U74C | 0.07
147 | A5G G9A A21G U26A U41C A57G U67C | 0.06
148 | A5G U51A A56G A75G | 0.32
149 | A5G U54A A75G | 0.64
150 | A5G G19U U26C U41A A65G U74A | 0.1
151 | A5G G9A U48A U69C C71U U80C | 0.06
152 | A5G U26C A57G U69C G70U | 0.21
153 | A5G G19U U26C | 0.52
154 | A5G U26C U41A U43A C71U U76A | 0.08
155 | A5G U25C U31C A45U A64U | 0.07
156 | A5G G8C U26C | 0.52
157 | A5G G9U U49C U54G | 0.27
158 | A5G U41A U80A | 0.56
159 | A5G U25C A35U A77G U78C | 0.01
160 | A5G U25C U26C A56U U66C | 0.22
161 | A5G G22A U25C U60C | 0.07
162 | A5G G6C G61A U74C | 0.48
163 | A5G U48C U58C U67C U72C | 0.25
164 | A5G U25C U26C U78C | 0.8
165 | A5G U49C U54A | 0.23
166 | A5G U31A A45U A65G U69C | 0.11
167 | A5G G7C G24A | 0.47
